# Data published in the supplement of paper PMC8728848.
# Some of the results follow.
# B1: LcH (Lens culinaris), P02870 (protein)
# chain: TETTSFSITKFSPDQQNLIFQGDGYTGKEGLTLTKVSKETGGRALYSTPIHIWDRDTVNVANFVTNGSQVFRESPNGYNVADGFTFFIAPVDTKPQTGGGYLGVFYNGKEYDKTSQTVAVEFDTFYNAAWDPSNKERHIGIDVNSIKSVNTKSWNLQNGVTSYTLNEVVPLKDVVPEWVRIGFSATTGAEFAAQEVHSWSFNSQLGHTSKS
# Assays:
# Assay in all cases: glycan array binding signal (z-score within array); higher = stronger binding
# Conditions in all cases: glycan notation: IUPAC condensed, linker removed
# [1] = molecular target: Gal(b1-4)GlcNAc(a1-6)Gal(b1-4)GlcNAc
# Outline: (§1)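 The binding signal is a Z-score computed within each array and averaged over linkers. Arrays of the same protein sequence at different concentrations or buffers were also averaged together. Data originate from 3228 arrays in the Consortium for Functional Glycomics database, kept only where the protein sequence was available.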
# [2] = molecular target: Gal(b1-4)GlcNAc(b1-2)Man(a1-3)Man(b1-4)GlcNAc(b1-4)GlcNAc
# Outline: as §1
# [3] = molecular target: Gal(b1-4)GlcNAc(b1-2)Man(a1-3)[Gal(b1-4)GlcNAc(b1-2)Man(a1-6)]Man(b1-4)GlcNAc(b1-4)GlcNAc
# Outline: as §1
# [4] = molecular target: Gal(b1-4)GlcNAc(b1-2)Man(a1-3)[Gal(b1-4)GlcNAc(b1-2)Man(a1-6)]Man(b1-4)GlcNAc(b1-4)[Fuc(a1-6)]GlcNAc
# Outline: as §1
# [5] = molecular target: Gal(b1-4)GlcNAc(b1-2)Man(a1-3)[Man(a1-6)]Man(b1-4)GlcNAc(b1-4)GlcNAc
# Outline: as §1
# [6] = molecular target: Gal(b1-4)GlcNAc(b1-2)Man(a1-6)Man(b1-4)GlcNAc(b1-4)GlcNAc
# Outline: as §1
# [7] = molecular target: Gal(b1-4)GlcNAc(b1-2)Man(a1-6)[Man(a1-3)]Man(b1-4)GlcNAc(b1-4)GlcNAc
# Outline: as §1
# [8] = molecular target: Gal(b1-4)GlcNAc(b1-2)[Gal(b1-4)GlcNAc(b1-4)]Man(a1-3)[Gal(b1-4)GlcNAc(b1-2)Man(a1-6)]Man(b1-4)GlcNAc(b1-4)GlcNAc
# Outline: as §1
# [9] = molecular target: Gal(b1-4)GlcNAc(b1-3)Gal(b1-3)GlcNAc
# Outline: as §1
# [10] = molecular target: Gal(b1-4)GlcNAc(b1-3)Gal(b1-4)Glc
# Outline: as §1
# [11] = molecular target: Gal(b1-4)GlcNAc(b1-3)Gal(b1-4)GlcNAc
# Outline: as §1
# [12] = molecular target: Gal(b1-4)GlcNAc(b1-3)Gal(b1-4)GlcNAc(b1-3)Gal(b1-4)GlcNAc
# Outline: as §1
# [13] = molecular target: Gal(b1-4)GlcNAc(b1-3)Gal(b1-4)[Fuc(a1-3)]GlcNAc(b1-3)Gal(b1-4)[Fuc(a1-3)]GlcNAc
# Outline: as §1
# [14] = molecular target: Gal(b1-4)GlcNAc(b1-3)GalNAc
# Outline: as §1
# [15] = molecular target: Gal(b1-4)GlcNAc(b1-3)[Gal(b1-4)GlcNAc(b1-6)]Gal(b1-4)GlcNAc
# Outline: as §1
# [16] = molecular target: Gal(b1-4)GlcNAc(b1-3)[GlcNAc(b1-6)]Gal(b1-4)GlcNAc
# Outline: as §1
# [17] = molecular target: Gal(b1-4)GlcNAc(b1-6)Gal(b1-4)GlcNAc
# Outline: as §1
# [18] = molecular target: Gal(b1-4)GlcNAc(b1-6)Gal(b1-4)GlcNAc(b1-6)GalNAc
# Outline: as §1
# [19] = molecular target: Gal(b1-4)GlcNAc(b1-6)GalNAc
# Outline: as §1
# [20] = molecular target: Gal(b1-4)GlcNAc(b1-6)[Gal(b1-3)]GalNAc
# Outline: as §1
# Gal3S(b1-3)GalNAc = molecular target: Gal3S(b1-3)GalNAc
# Outline: as §1
# Gal3S(b1-3)GlcNAc = molecular target: Gal3S(b1-3)GlcNAc
# Outline: as §1
# [21] = molecular target: Gal3S(b1-3)[Fuc(a1-4)]GlcNAc
# Outline: as §1
# Gal3S(b1-4)Glc = molecular target: Gal3S(b1-4)Glc
# Outline: as §1
# Gal3S(b1-4)Glc6S = molecular target: Gal3S(b1-4)Glc6S
# Outline: as §1
# Gal3S(b1-4)GlcNAc = molecular target: Gal3S(b1-4)GlcNAc
# Outline: as §1
# Gal3S(b1-4)GlcNAc6S = molecular target: Gal3S(b1-4)GlcNAc6S
# Outline: as §1
# [22] = molecular target: Gal3S(b1-4)[Fuc(a1-3)]Glc
# Outline: as §1
# Gal3S4S(b1-4)GlcNAc = molecular target: Gal3S4S(b1-4)GlcNAc
# Outline: as §1
# Gal3S6S(b1-4)GlcNAc = molecular target: Gal3S6S(b1-4)GlcNAc
# Outline: as §1
# Gal3S6S(b1-4)GlcNAc6S = molecular target: Gal3S6S(b1-4)GlcNAc6S
# Outline: as §1
# Gal4S(b1-4)GlcNAc = molecular target: Gal4S(b1-4)GlcNAc
# Outline: as §1
# Gal4S6S(b1-4)GlcNAc = molecular target: Gal4S6S(b1-4)GlcNAc
# Outline: as §1
# Gal6S(b1-4)Glc = molecular target: Gal6S(b1-4)Glc
# Outline: as §1
# Gal6S(b1-4)Glc6S = molecular target: Gal6S(b1-4)Glc6S
# Outline: as §1
# Gal6S(b1-4)GlcNAc = molecular target: Gal6S(b1-4)GlcNAc
# Outline: as §1
# Gal6S(b1-4)GlcNAc6S = molecular target: Gal6S(b1-4)GlcNAc6S
# Outline: as §1
# GalNAc(a1-3)Gal = molecular target: GalNAc(a1-3)Gal
# Outline: as §1
# GalNAc(a1-3)GalNAc = molecular target: GalNAc(a1-3)GalNAc
# Outline: as §1
# GalNAc(b1-3)Gal = molecular target: GalNAc(b1-3)Gal
# Outline: as §1
# [23] = molecular target: GalNAc(b1-3)Gal(a1-4)Gal(b1-4)GlcNAc
# Outline: as §1
# [24] = molecular target: GalNAc(b1-3)Gal(a1-4)Gal(b1-4)GlcNAc(b1-3)Gal(b1-4)Glc
# Outline: as §1
# GalNAc(b1-3)GalNAc = molecular target: GalNAc(b1-3)GalNAc
# Outline: as §1
# GalNAc(b1-4)GlcNAc = molecular target: GalNAc(b1-4)GlcNAc
# Outline: as §1
# [25] = molecular target: GalNAc(b1-4)GlcNAc(b1-2)Man(a1-3)[GalNAc(b1-4)GlcNAc(b1-2)Man(a1-6)]Man(b1-4)GlcNAc(b1-4)GlcNAc
# Outline: as §1
binder,measurement,setting,value
B1,glycan array binding signal (z-score),[1],-0.145
same,glycan array binding signal (z-score),[2],-0.098
same,glycan array binding signal (z-score),[3],-0.093
same,glycan array binding signal (z-score),[4],9.53
same,glycan array binding signal (z-score),[5],-0.099
same,glycan array binding signal (z-score),[6],-0.105
same,glycan array binding signal (z-score),[7],-0.132
same,glycan array binding signal (z-score),[8],-0.13
same,glycan array binding signal (z-score),[9],-0.127
same,glycan array binding signal (z-score),[10],-0.107
same,glycan array binding signal (z-score),[11],-0.117
same,glycan array binding signal (z-score),[12],-0.116
same,glycan array binding signal (z-score),[13],-0.081
same,glycan array binding signal (z-score),[14],-0.122
same,glycan array binding signal (z-score),[15],-0.138
same,glycan array binding signal (z-score),[16],-0.144
same,glycan array binding signal (z-score),[17],-0.132
same,glycan array binding signal (z-score),[18],-0.094
same,glycan array binding signal (z-score),[19],-0.148
same,glycan array binding signal (z-score),[20],-0.135
same,glycan array binding signal (z-score),Gal3S(b1-3)GalNAc,-0.046
same,glycan array binding signal (z-score),Gal3S(b1-3)GlcNAc,-0.117
same,glycan array binding signal (z-score),[21],-0.137
same,glycan array binding signal (z-score),Gal3S(b1-4)Glc,-0.11
same,glycan array binding signal (z-score),Gal3S(b1-4)Glc6S,-0.122
same,glycan array binding signal (z-score),Gal3S(b1-4)GlcNAc,-0.102
same,glycan array binding signal (z-score),Gal3S(b1-4)GlcNAc6S,-0.12
same,glycan array binding signal (z-score),[22],-0.137
same,glycan array binding signal (z-score),Gal3S4S(b1-4)GlcNAc,-0.132
same,glycan array binding signal (z-score),Gal3S6S(b1-4)GlcNAc,-0.086
same,glycan array binding signal (z-score),Gal3S6S(b1-4)GlcNAc6S,-0.135
same,glycan array binding signal (z-score),Gal4S(b1-4)GlcNAc,-0.125
same,glycan array binding signal (z-score),Gal4S6S(b1-4)GlcNAc,-0.122
same,glycan array binding signal (z-score),Gal6S(b1-4)Glc,-0.137
same,glycan array binding signal (z-score),Gal6S(b1-4)Glc6S,-0.08
same,glycan array binding signal (z-score),Gal6S(b1-4)GlcNAc,-0.082
same,glycan array binding signal (z-score),Gal6S(b1-4)GlcNAc6S,-0.076
same,glycan array binding signal (z-score),GalNAc(a1-3)Gal,-0.107
same,glycan array binding signal (z-score),GalNAc(a1-3)GalNAc,-0.119
same,glycan array binding signal (z-score),GalNAc(b1-3)Gal,-0.101
same,glycan array binding signal (z-score),[23],-0.149
same,glycan array binding signal (z-score),[24],-0.114
same,glycan array binding signal (z-score),GalNAc(b1-3)GalNAc,-0.122
same,glycan array binding signal (z-score),GalNAc(b1-4)GlcNAc,-0.123
same,glycan array binding signal (z-score),[25],-0.112
